Data published in patent publication US20240108591A1, “OR2L13 AGONISTS TO TREAT CVD WITH DY[…] ACTIVATION” (The Cleveland Clinic Foundation, priority 2022, published 2024).

Biological target: T1, Human OR2L13 (Homo sapiens, UniProt Q8N349)
T1 sequence (Q8N349 1-312): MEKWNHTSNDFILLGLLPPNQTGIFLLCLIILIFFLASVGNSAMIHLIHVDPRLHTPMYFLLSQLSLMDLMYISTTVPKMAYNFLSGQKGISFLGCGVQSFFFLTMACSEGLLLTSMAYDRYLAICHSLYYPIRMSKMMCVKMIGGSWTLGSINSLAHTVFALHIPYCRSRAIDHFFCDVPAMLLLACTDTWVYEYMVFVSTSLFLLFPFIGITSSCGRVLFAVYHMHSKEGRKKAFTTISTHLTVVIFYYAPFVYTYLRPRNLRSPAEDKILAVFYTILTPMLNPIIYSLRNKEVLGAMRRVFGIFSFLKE
Experiment: Odorant screen in OR2L13/RTP1s HEK293 CRE-luciferase reporter cells
Conditions: HEK293 CRE-luciferase cells with OR2L13 and RTP1s; 0-500 μM; forskolin as positive control
Source text: FIG. 4. Characterization of OR2L13 agonists. A. Human OR2L13 cloned in frame with HA (GFP in a secondary cassette, green) and co-expressed with Receptor Transport Protein ls (RTP1s) (mCherry in a secondary cassette, red) stably in HEK293/cAMP cells. Microscopy (left) and Western blotting (right) confirm OR2L13-HA expression. IP=immunoprecipitation. TCL=total cell lysate. OR2L13 ligands stimulate (Golf) and adenyl cyclase produces cAMP B. A cAMP-Response Element (CRE) expressing HEK293 cells with stable integration of OR2L13-HA was utilized to screen for ligands. C. […]
The control and RTP1s/OR2L13 reporter cells were used to perform odorant screening. […] The next day, 20 μL of One-Step Luciferase assay system (BPS Bioscience, San Diego, CA) was added to each plate and luciferase activity was read on a Gen5 plate reader. The ratio or OR2L13 cell line/vector cell line was used to indicate a positive response by way of a CRE reporter readout ratio of>1.0, then a dose response curve was constructed for lead compounds.
Following OR ligation by an external agonist, Golf activates adenylyl cyclase (AC) to hydrolyze cyclic AMP (cAMP) from ATP. […] Using cells expressing only the empty vector as a control, multiple potential olfactory receptor ligands were evaluated.

`C=C(C)C1CC=C(C)C(=O)C1` (single isomer, unassigned; (-)) [(−) carvone] was tested, and the “OR2L13 activation, cAMP generation (CRE reporter readout, OR2L13 cell line/vector cell line)” value was “reproducibly activated OR2L13, generating endogenous cAMP in a dose-dependent manner”.
